In publication PMC4336329 (PLoS ONE, 2015):
The campaign covered roughly 310,000 compounds. About 2,200 (0.71%) showed an effect of 50% or more. Effects have a minus sign here. Some of the results follow.

What follows are compounds tested against human ether-à-go-go-related gene (hERG) potassium channel (human, UniProt Q12809) (assay: primary screen, population patch clamp on CHO cells stably expressing hERG).
Chain of human ether-à-go-go-related gene (hERG) potassium channel (Q12809 whole entry, looked up): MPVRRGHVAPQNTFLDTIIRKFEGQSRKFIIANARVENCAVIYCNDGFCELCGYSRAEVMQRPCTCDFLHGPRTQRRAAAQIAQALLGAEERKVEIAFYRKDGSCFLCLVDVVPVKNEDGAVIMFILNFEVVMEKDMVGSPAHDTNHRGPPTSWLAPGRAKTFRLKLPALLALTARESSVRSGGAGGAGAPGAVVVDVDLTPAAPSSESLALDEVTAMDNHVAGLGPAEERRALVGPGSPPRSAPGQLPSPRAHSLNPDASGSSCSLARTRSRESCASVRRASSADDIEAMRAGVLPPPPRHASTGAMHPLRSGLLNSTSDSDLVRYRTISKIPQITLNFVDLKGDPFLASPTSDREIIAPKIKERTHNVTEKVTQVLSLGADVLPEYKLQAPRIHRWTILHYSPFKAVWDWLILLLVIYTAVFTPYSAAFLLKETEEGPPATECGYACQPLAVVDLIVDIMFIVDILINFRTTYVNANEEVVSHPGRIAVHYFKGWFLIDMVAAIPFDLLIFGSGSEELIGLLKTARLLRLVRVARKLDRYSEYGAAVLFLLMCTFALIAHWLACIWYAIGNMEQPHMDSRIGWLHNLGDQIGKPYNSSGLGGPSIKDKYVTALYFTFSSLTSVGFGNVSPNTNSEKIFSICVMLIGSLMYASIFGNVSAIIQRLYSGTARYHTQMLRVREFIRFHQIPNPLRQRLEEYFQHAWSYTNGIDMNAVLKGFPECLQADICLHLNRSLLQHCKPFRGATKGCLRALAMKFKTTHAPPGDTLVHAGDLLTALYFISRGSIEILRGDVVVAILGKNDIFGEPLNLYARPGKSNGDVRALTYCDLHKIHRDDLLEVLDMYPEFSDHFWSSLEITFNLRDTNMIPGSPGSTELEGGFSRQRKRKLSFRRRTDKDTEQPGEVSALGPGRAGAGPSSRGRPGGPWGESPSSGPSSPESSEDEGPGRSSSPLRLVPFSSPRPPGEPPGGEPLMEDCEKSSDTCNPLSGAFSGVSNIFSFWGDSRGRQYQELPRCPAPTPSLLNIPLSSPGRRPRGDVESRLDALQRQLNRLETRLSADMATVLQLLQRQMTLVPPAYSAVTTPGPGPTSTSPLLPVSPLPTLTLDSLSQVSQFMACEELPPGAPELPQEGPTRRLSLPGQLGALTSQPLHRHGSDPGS

Compound | hERG current change (%, negative = inhibition) at 1uM [%]
O=C(N/N=C/C=C/c1ccccc1)c1cc2c(ccc3ccccc32)o1 | 1.69
O=C(NC1CCC(O)CC1)c1cc(-c2ccc(Cl)cc2)nc2ccccc12 (stereo not drawn) | 3.6
CCOc1ccccc1NC(=O)N1CCCC1C(=O)Nc1ccc(NC(C)=O)cc1 (stereo not drawn) | 6.33
Cc1ccc(Cn2ncc3c(N4CCCC4)ncnc32)cc1 | -20.4
O=C(O)c1cc(C2CC2)nn1-c1ccccc1 | 4.87
O=C(O)CN1C(=O)COc2ccc(S(=O)(=O)N3CCCCCC3)cc21 | 10.2
Cc1ccc(-n2nnnc2SCC#N)cc1 | 8.29
COC(=O)CCC(=O)Nc1nc(-c2ccccc2)cs1 | 13.4
O=C(CCn1c(=S)[nH]c2ccccc2c1=O)Nc1ccc(F)cc1 | 14.4
COc1ccc(S(=O)(=O)N2CCOC2CNC(=O)C(=O)NCCCn2ccnc2)cc1OC (stereo not drawn) | 8.81
C=C(C)c1cccc(C(C)(C)NC(=O)N2CCCC(C)C2)c1 (stereo not drawn) | 16.4
CN(CCO)CCOCCOc1cccc2ccccc12 | 4.69
CCOC(=O)NC(c1ccc(C(C)C)cc1)C(Cl)(Cl)Cl (stereo not drawn) | 12.2
CCCn1nnc(NC(=O)c2ccccc2Cl)n1 | 14.8
COc1cc(OC)c(OC)cc1/C=C1\C(=O)NC(=O)N(Cc2ccccc2)C1=O | 15.8
c1csc(-c2csc3ncnc(NCCCN4CCOCC4)c23)c1 | -10.9
Cc1ccc2nc(SC(C)C(=O)N3CCCCC3)[nH]c2c1 (stereo not drawn) | 16.8
COc1ccc(OCC(=O)NCCCn2ccnc2)cc1.Cl | 13.5
Cc1ccc(CONC(=O)/N=C/N(C)C)cc1 | -0.65
Cc1c(C(=O)N2CCCCCC2)c(S(=O)(=O)Nc2cccc(F)c2)c(C)n1C | 12.5
O=C(CCCNC(=O)/C(=C/c1ccccc1F)NC(=O)c1ccccc1)OCc1ccccc1 | 4.25
COc1ccc(C2CC(c3ccccc3)=NN2C(=O)CSc2nnnn2-c2cccc(C)c2)cc1 (stereo not drawn) | 2.06
O=C(COC(=O)Cc1cccc(F)c1)NCCc1ccccc1 | 8.44

Compound | hERG current change (%, negative = inhibition) at 1uM [%]
COCCOC(=O)c1cc(C(=O)c2cc(F)ccc2O)coc1=N | 18.5
CC(C)CC(NC(=O)C(CC(C)C)NC(=O)OC(C)(C)C)C(N)=O (stereo not drawn) | 9.86
COc1ccc(C(=O)n2c(C)c(CCO)c(=O)n2C)cc1 | 7.35
Cc1c(Cl)cccc1NC(=O)CCCN1C(=O)c2cccnc2C1=O | 19.9
CSc1c(-c2ccccn2)c(N)nn1C(=O)C1CC1 | 10.9
COc1ccc(C(=O)N=C2SC3CS(=O)(=O)CC3N2c2ccccc2)cc1OC (stereo not drawn) | 9.82
COc1ccc(S(=O)(=O)N(C)c2ccc(C(=O)N3CCC(C(N)=O)CC3)cc2)cc1OC | 15.9
Cc1cc(C)cc(C(=O)NC(CC(N)=O)c2ccc(NCCN3CCOCC3)c([N+](=O)[O-])c2)c1 (stereo not drawn) | 13.4
COc1ccc(CCNS(=O)(=O)c2ccc(-n3cnnn3)c(OC)c2)cc1OC | 17
CC(C)=CCN1CCC(n2nccc2NC(=O)c2ccccc2Cl)CC1 | -43
CC(C)CC(C(=O)O)N1C(=O)C2C3C=CC(C2C1=O)C1C(=O)N(C(CC(C)C)C(=O)O)C(=O)C31 (stereo not drawn) | 16.8
Cc1noc(C)c1CSCC(=O)N(C)CC(=O)Nc1cccc(F)c1 | -5.51
CC1CCN(S(=O)(=O)c2ccc(NC(=O)c3ccccc3F)cc2)CC1 | 9.59
Cc1cc(C(=O)NCCCC(=O)O)c(C)o1 | 3.98
NS(=O)(=O)c1cccc(NC(=O)CN2CCN(Cc3ccc4c(c3)OCO4)CC2)c1 | -4.96
CC(=O)NC1=NN(C(C)=O)C(C)(CCS(=O)(=O)c2ccc(Br)cc2)S1 (stereo not drawn) | 6.6
N#Cc1c(SCc2c(Cl)cccc2Cl)nc(N)[nH]c1=S | 14.4
O=C(N[C@@H](Cc1ccccc1)C(=O)OCC(=O)N1CCOCC1)c1cccs1 | -6.21
CC(OC(=O)c1cc[n+]([O-])cc1)C(=O)Nc1ccc(C(N)=O)cc1 (stereo not drawn) | 11.8
CCN(C(=O)C1CCCN(c2nc(-c3ccc(OC)cc3)no2)C1)c1ccccc1F (stereo not drawn) | 5.47
Cc1ccc(C(=O)Nc2cccc(C(=O)N3CCOCC3)c2)cc1Cl | 7.51
C/C(Cc1ccccc1)=N\NC(=O)CNC(=O)COc1cccc(C)c1 | 3.02
